Screen size: about 110,000 compounds; about 40 (0.04%) were called active. The inconclusive results got no clear call from the source; some entries with a clear call stand among them for comparison. Calls follow the shape of the dose curve; as a rule, active = well fitted curve in the direction sought with a large enough effect in the signal ratio (not every such curve was filed as active); inconclusive = small, poorly fitted or top-dose-only effect, or a change in a side signal; inactive = flat fitted curve, though single readings scatter; the % refers to the signal ratio. Potencies beside an inconclusive call are fits to weak or partial responses and may not hold up.
Test: IkB Signaling;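 as to IkBa stabilization activation: 0% = basal untreated cells and 100% = reference inhibitor full response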
Conditions: ABC-DLBCL IkBa-CBG/CBR dual luciferase ratio (green luciferase fused to IkBa over red control in OCI-Ly3 lymphoma cells), 4 h; IkBa stabilization activation: at 57.1 µM (top of the series), scaled: untreated 0%, proteasome inhibitor 100% unless noted
How it was run: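 In this assay, an IκBα–CBG68 fusion accumulates when IKK-driven degradation is blocked; native CBR normalizes for cell number. OCI-Ly3 cells were treated 4 h with compound and doxycycline, then green and red light read after Chroma-Glo addition.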
Potency is read from the fitted curve at half-maximal effect.

SMILES | IkBa stabilization activation | Potency
CN(c1cccc(NC(=O)COc2ccccc2)c1)S(C)(=O)=O | inactive | 
COc1cccc(CNC(=O)c2nn(C)c3c2CS(=O)(=O)c2ccccc2-3)c1 | inconclusive: 1.83% [signal inhibitor] | 
COc1ccc(NC(=O)CSC2=Nc3ccccc3C3=NC(CCC(=O)NCCc4ccccc4)C(=O)N23)c(OC)c1 (stereo not given) | inconclusive: 1.29% [signal inhibitor] | 
CCOC(=O)CCCCC(=O)c1[nH]c(=O)[nH]c1CN1CCOCC1 | inactive | 
COc1ccc(CNC(=O)c2cc(C)nc3c2c(C)nn3-c2cccc(Cl)c2C)cc1 | inconclusive: 0.54% [signal inhibitor] | 
CCn1c(=O)cc(OCC(=O)NCc2ccco2)c2ccccc21 | inactive | 
CC(C)CN(CCCNC(=O)c1cn(C)c2ccc(S(=O)(=O)N(C)C3CCCCC3)cc2c1=O)CC(C)C | inconclusive: -1.31% [signal inhibitor] | 
COc1cccc(NC(=O)C(CCSC)NC(=O)C2CCC(C)CC2)c1 (stereo not given) | inconclusive: 2.83% [signal inhibitor] | 
O=C(CSc1nccn1Cc1ccccc1)Nc1ccc2c(c1)OCO2 | inactive | 
CC1CCN(c2nc3c(c(=O)n(C)c(=O)n3C)n2Cc2ccccc2)CC1 | inconclusive: 2.17% [signal inhibitor] | 
CCOC(=O)N1CCC(NC(=O)c2ccc3c(c2)N(Cc2cc(C)ccc2C)C(=O)c2ccccc2S3=O)CC1 (stereo not given) | inconclusive: 0.717% [signal inhibitor] | 
CCOc1cc(C(=O)NCCc2csc(-c3ccc(C)cc3)n2)cc(OCC)c1OCC | inconclusive: 4.38% [signal inhibitor] | 
O=C(OCc1nc2ccccc2s1)c1cccs1 | inactive | 
CN(C(=O)c1cc2c(=O)n3ccccc3nc2n1C)c1ccccc1 | inconclusive: -0.8% [signal inhibitor] | 
CCOC(=O)c1cnc2c(-c3ccccc3)cnn2c1N |  | inconclusive: 1.26 µM [signal inhibitor, full curve]
CC(=O)c1cccc(NC(=O)c2nc3ccccc3nc2N2CCCCC2)c1 | inactive | 
Cc1ccc(Cl)cc1N1CCN(C(=O)C2CCN(S(=O)(=O)c3ccc4c(c3)oc(=O)n4C)CC2)CC1 | inconclusive: 4.27% [signal inhibitor] | 
CCOc1ccc(-c2nc(CSc3nncs3)cs2)cc1OC | inactive | 
Cc1cc(C)c2c(n1)nn1c(C)c(CCC(=O)NCc3ccc(Cl)cc3)c(C)nc21 | inconclusive: 3.47% [signal inhibitor] | 
Cc1ccc(C(=O)Nc2ccc3c(c2)ncn3C)cc1 | inactive | 
CN(C)S(=O)(=O)c1cccc(C(=O)NCCc2ccccc2)c1 | inactive | 
CCOC(=O)c1c(S(=O)(=O)N2CCC(C(=O)Nc3ccc(OCC)cc3)CC2)c(C)n(C)c1C | inactive | 
CN(C)c1ncc2nc(-c3cccs3)c(=O)n(Cc3cccs3)c2n1 | inactive: -2.11% [at 11.4 µM, scaled: untreated 0%, proteasome inhibitor 100%] | 

SMILES | IkBa stabilization activation | Potency
c1ccc(-c2ccc(-c3nc(-c4ccccn4)no3)cc2)cc1 | inconclusive: 9.02% [signal inhibitor] | 
Cc1ccc(OCc2nc(-c3ccc(C(=O)N4CCN(c5ccccc5)CC4)cc3)oc2C)cc1 | inconclusive: -1.49% [signal inhibitor] | 
O=C(NCc1ccccc1Cl)c1ccc(Nc2nc3ccccc3n3nnnc23)cc1 |  | inconclusive: 7.94 µM [signal inhibitor, full curve]
CCc1ccc(C2c3c(-c4cc(C)ccc4O)n[nH]c3C(=O)N2Cc2cccnc2)cc1 (stereo not given) | inconclusive: 8.85% [signal inhibitor] | 
Cc1ccccc1N(CC(=O)NC1CCCC1)C(=O)CS(=O)CC(=O)Nc1ccc2c(c1)OCO2 (stereo not given) | inactive | 
CC(=O)Nc1nnc(SCc2cc(=O)c3cccc(Cl)c3[nH]2)s1 | inactive | 
Cn1cc(CCCC(=O)NCc2ccccc2Cl)c2ccccc21 | inconclusive: 0.291% [signal inhibitor] | 
CCOc1ccc(OCC)c(Nc2cc(C)nc3nc(-c4ccco4)nn23)c1 | inconclusive: 2.25% [signal inhibitor] | 
CNC(=O)c1[nH]cnc1C(=O)Nc1cccc(OC)c1 | inconclusive: 1.37% [signal inhibitor] | 
O=C(c1ccc([N+](=O)[O-])cc1)N1CCN(c2ccc(Nc3ccccc3)nn2)CC1 | inconclusive: 0.0496% [signal inhibitor] | 
Cn1cc(C(=O)c2ccc(F)cc2)cc1-c1nc2ccccc2n1C | inconclusive: 2.79% [signal inhibitor] | 
COc1cccc2c1Oc1ncccc1N(C(=O)Nc1cccc(Cl)c1)C2 | inconclusive: 1.35% [signal inhibitor] | 
COc1ccc(N(C)S(=O)(=O)c2cccc3cccnc23)c(OC)c1 | inconclusive: 2.44% [signal inhibitor] | 
Cn1nc(-c2ccc(C(=O)Nc3cccc(C(F)(F)F)c3)cc2)c2ccccc2c1=O | inconclusive: 12.8% [signal inhibitor] | 
CCn1c(=O)n(CC)c2cc(S(=O)(=O)N3CCc4ccccc43)ccc21 | inconclusive: 2.39% [signal inhibitor] | 
CCOc1ccccc1NC(=O)CN1c2ccccc2S(=O)(=O)c2ccccc21 | inactive | 
CCOc1ccc(NS(=O)(=O)c2ccc3[nH]cc(C(=O)NCc4ccccc4)c(=O)c3c2)cc1 | inconclusive: 0.315% [signal inhibitor] | 
Cc1cccc(CNC(=O)c2ccc3c(c2)N(C)C(=O)C2CCCCN32)c1 (stereo not given) | inconclusive: 13.9% [signal inhibitor] | 
COc1cccc(NC(=O)CN2C(=O)C3(OCCCO3)c3ccccc32)c1 | inconclusive: 14.5% [signal inhibitor] | 
COc1ccc(Cn2ccc3nc(C)c(C(=O)Nc4ccc(OC(F)(F)F)cc4)cc3c2=O)cc1 | inconclusive: 1.16% [signal inhibitor] | 
C=CCn1c(/N=C/c2ccc(N(C)C)cc2)nc2ccccc21 | inactive | 
CCCCC(=O)OC1=C(C(=O)c2ccccc2)N(CC)S(=O)(=O)c2ccccc21 | inconclusive: 10.1% [signal inhibitor] | 
